Test results: the supplement of paper PMC12217912
The other results are listed elsewhere or left out. Sequences were assembled here from the parent chain. Values near 0.05 are background.

B1: TEV protease; numbered along this chain (parent)
chain: MGESLFKGPRDYNPISSSICHLTNESDGHTTSLYGIGFGPFIITNKHLFRRNNGTLVVQSLHGVFKVKDTTTLQQHLVDGRDMIIIRMPKDFPPFPQKLKFREPQREERICLVTTNFQTKSMSSMVSDTSCTFPSGDGIFWKHWIQTKDGQCGSPLVSTRDGFIVGIHSASNFTNTNNYFTSVPKNFMELLTNQEAQQWVSGWRLNADSVLWGGHKVFMVKPEEPFQPVKEATQL

Variants of: B1
Experiment: raw area under fraction-flipped curve 0-4 h after induction (AUC4h, not background-subtracted), DNA-recorder readout of cleavage of the substrate (dimensionless); higher = more cleavage of the substrate by the protease variant
Details: temperature: 34 °C; time window: 0-4 h after rhamnose induction
Experimental: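 In vivo DNA recorder in E. coli TOP10(DE3) ΔrhaA at 34 °C. Each TEVp single-site mutant (parent TEVp 0) is paired with a single-site variant of the 7-mer TEVs (canonical ENLYFQ|S). The substrate sits between flexible linkers in a Bxb1-sfGFP-TEVs-SsrA fusion, so cleavage stabilises Bxb1 and speeds flipping of a recombination array, read by NGS. The value is the raw area under the fraction-flipped curve over 0-4 h after rhamnose induction (AUC4h), with ≥20 reads per time point. It is not background-subtracted; inactive controls average about 0.047.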
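Further: Bxb1 expression induced with 0.2% (w/v) L-rhamnose at OD600 near 0.5, cultures sampled hourly, flipped fraction per protease–substrate barcode pair counted by paired-end Illumina sequencing.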

Row | Variant | area with substrate EALYFQS | area with substrate ECLYFQS | area with substrate EELYFQS | area with substrate EGLYFQS | area with substrate EHLYFQS | area with substrate EKLYFQS | area with substrate EMLYFQS | area with substrate EPLYFQS | area with substrate EQLYFQS | area with substrate ERLYFQS | area with substrate ESLYFQS | area with substrate ETLYFQS | area with substrate EVLYFQS | area with substrate EWLYFQS | area with substrate EYLYFQS | area with substrate EILYFQS | area with substrate ELLYFQS | area with substrate EDLYFQS | area with substrate EFLYFQS
1 | Y12M | 0.0952 | 0.0963 | 0.0979 | 0.0963 | 0.12 | 0.106 | 0.116 | 0.106 | 0.114 | 0.109 | 0.125 | 0.105 | 0.0908 | 0.108 | 0.13 |  |  |  | 
2 | Y12C | 0.101 | 0.111 | 0.101 |  | 0.117 | 0.119 | 0.104 | 0.138 | 0.118 |  | 0.101 | 0.122 | 0.0816 | 0.0921 |  | 0.0884 | 0.0886 |  | 
3 | Y12N | 0.141 | 0.091 |  | 0.0804 | 0.124 |  | 0.0959 |  |  | 0.148 | 0.109 |  | 0.086 |  | 0.109 | 0.0953 | 0.104 |  | 
4 | P14K | 0.0887 |  | 0.111 |  |  |  | 0.0874 |  | 0.113 | 0.0691 | 0.0844 | 0.0928 | 0.0819 |  |  | 0.0753 | 0.0821 | 0.128 | 
5 | P14E | 0.0875 | 0.0879 | 0.141 | 0.124 | 0.082 | 0.0697 | 0.122 |  | 0.0959 |  | 0.0898 |  | 0.108 | 0.0822 |  | 0.0955 | 0.0621 |  | 0.122
6 | P14H | 0.134 |  |  |  | 0.161 |  | 0.0857 |  |  | 0.0925 | 0.113 |  | 0.1 |  | 0.117 | 0.128 | 0.1 | 0.133 | 
7 | I15P | 0.066 | 0.0542 |  |  | 0.076 | 0.0838 |  | 0.0934 | 0.0719 | 0.0886 | 0.0798 | 0.094 | 0.0675 | 0.0687 |  |  |  |  | 0.102
8 | I15M | 0.104 | 0.0923 | 0.119 | 0.0756 | 0.104 |  | 0.106 |  |  | 0.108 | 0.0856 |  | 0.0808 |  | 0.0839 | 0.114 | 0.083 |  | 0.0923
9 | L22S | 0.0666 | 0.0524 | 0.0497 | 0.0502 |  | 0.0535 | 0.0493 | 0.0495 | 0.0484 | 0.044 | 0.055 | 0.0527 | 0.0506 | 0.049 | 0.0589 | 0.0473 | 0.0546 |  | 0.0564
10 | L22Y | 0.0491 |  | 0.0305 | 0.0517 |  | 0.0585 |  | 0.0478 | 0.0504 |  | 0.0485 | 0.044 | 0.071 | 0.0534 |  | 0.0596 | 0.0395 |  | 
11 | L22D | 0.0468 |  | 0.0516 | 0.0429 | 0.0498 | 0.0462 |  | 0.0441 | 0.0617 | 0.0455 | 0.0505 |  | 0.0484 | 0.0488 | 0.0437 | 0.0451 | 0.0444 | 0.0544 | 
12 | L22C | 0.109 | 0.0944 |  | 0.0947 | 0.0831 | 0.0968 | 0.0999 |  | 0.0858 | 0.0895 | 0.0922 | 0.0698 | 0.083 |  | 0.0716 | 0.0688 | 0.0853 |  | 
13 | L22H | 0.0492 |  |  | 0.0284 | 0.0384 | 0.0494 | 0.0328 | 0.0339 | 0.054 | 0.046 | 0.056 |  | 0.044 | 0.0505 | 0.052 | 0.0397 | 0.0357 | 0.0377 | 0.0528
14 | L5P | 0.0764 |  | 0.0484 |  |  |  |  |  | 0.0681 | 0.0595 | 0.0722 |  |  | 0.104 |  |  | 0.0661 |  | 
15 | S4Y | 0.144 | 0.148 |  |  | 0.168 | 0.128 | 0.17 | 0.19 | 0.153 |  | 0.155 |  |  | 0.132 |  | 0.142 | 0.114 |  | 0.144
16 | S4I | 0.133 | 0.128 |  | 0.123 | 0.0927 | 0.102 |  | 0.161 | 0.173 | 0.122 | 0.133 |  | 0.0909 | 0.13 | 0.142 | 0.0995 | 0.19 |  | 0.0881
17 | D27G | 0.127 |  |  | 0.131 |  | 0.0903 | 0.119 |  | 0.0984 | 0.0821 | 0.0963 | 0.126 | 0.0906 |  |  |  |  |  | 
18 | D27S | 0.106 | 0.112 | 0.0705 | 0.0962 | 0.105 | 0.0925 | 0.0971 | 0.0983 | 0.097 |  | 0.101 |  | 0.113 | 0.0902 | 0.0779 |  | 0.0972 |  | 
19 | R10D | 0.116 | 0.112 | 0.112 | 0.1 |  | 0.0995 | 0.0939 | 0.103 | 0.145 | 0.0898 | 0.101 | 0.0562 | 0.0829 | 0.101 |  | 0.0884 | 0.122 |  | 0.094
20 | R10W | 0.123 |  | 0.105 | 0.122 | 0.165 | 0.0998 | 0.115 | 0.124 | 0.123 | 0.0922 | 0.0837 | 0.107 | 0.0974 | 0.129 | 0.0551 | 0.0814 | 0.108 | 0.15 | 
21 | I19W | 0.0689 |  | 0.048 | 0.0553 | 0.0535 | 0.0619 |  |  | 0.0601 | 0.0505 | 0.0586 |  | 0.0348 | 0.0531 | 0.061 | 0.0523 |  | 0.0215 | 
22 | T23E | 0.0927 | 0.0875 | 0.117 | 0.0874 | 0.125 | 0.122 | 0.0966 | 0.0715 | 0.107 | 0.0881 | 0.101 |  | 0.0976 | 0.115 | 0.103 | 0.0904 | 0.0625 |  | 
23 | T23K | 0.111 | 0.081 |  |  | 0.1 | 0.0767 |  | 0.0819 | 0.085 | 0.115 | 0.0912 | 0.137 | 0.072 | 0.078 |  | 0.0845 | 0.0677 | 0.116 | 
24 | T23A | 0.115 | 0.101 | 0.101 | 0.0731 |  |  | 0.0987 |  | 0.105 | 0.106 | 0.0929 |  | 0.0845 | 0.0973 | 0.0864 | 0.111 | 0.0861 |  | 
25 | S17P | 0.103 |  | 0.107 | 0.0727 |  |  | 0.0955 | 0.116 | 0.109 | 0.0832 | 0.0958 | 0.101 | 0.0972 | 0.0929 | 0.0912 | 0.112 | 0.1 | 0.105 | 
26 | N13F | 0.118 | 0.0944 | 0.113 | 0.0892 | 0.107 | 0.0945 | 0.111 | 0.138 | 0.0998 | 0.089 | 0.0878 |  | 0.0761 |  |  | 0.0773 | 0.0731 |  | 0.0607
